According to the supplement of paper PMC10338343:
± gives the standard deviation. The full ranking holds about 3,700 sequences; the median of “pre-steady-state target cleavage rate” is about 0.02, and the highest 2% start at about 0.23. The list shows a part of the results, in another mix than the full data.

System: MILI (PIWIL2) piRISC loaded with Kctd7 piRNA (26 nt)
Experiment: pre-steady-state target cleavage rate (min^-1); MIWI and MILI are mouse PIWI proteins and EfPiwi is from a freshwater sponge; tags in brackets are library labels; higher = faster piRNA-guided slicing of the target
Conditions: guide: Kctd7 piRNA 5'p-UGUUAAUCUCUCAGAGAAGGUGACAG; auxiliary factor: 500 nM mouse GTSF1
Summary of the method: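 A burst-and-steady-state fit was used to obtain the pre-steady-state cleavage rate. The input data were sequencing reads of uncleaved targets, normalised to depth and to weakly complementary targets, from a […] transcribed, DNA-blocked target RNA library mixed with 1 nM active affinity-purified piRISC holding one synthetic guide, with or without 500 nM GTSF1 partner protein, in HEPES–potassium acetate buffer at 33 °C for 0–8 or 0–960 min. Three trials were pooled and k3 was capped at 0.0001 min^-1.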
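Further: 1 nM active piRISC with 0.1 nM target library at 33 °C single turnover.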

Sequence | pre-steady-state target cleavage rate
UAGUGACUCACCUUCUCUGAGAGUUUAACA | 0.118 ± 0.028
UAGUGACUCAGCUUCUCUGAGAGAUUAUCA | 0.03 ± 0.0087
UAGUGUGUCACCUUCCUCUGAGAGAUUAACA | 0.162 ± 0.016
UAGUGACAGACCUUCUCUGAGAGUAUAAGA | < 0.0001
UAGUGACACACCGUCUCUGAGAGAUUAACA | 0.143 ± 0.015
UAGUGACAGACCUUGCUCUGAGAGAUUAACA | 0.00898 ± 0.0058
UAGUGACAGACCUUCUCUGAGAGAUUAAACA | 0.126 ± 0.015
UAGUGUGUCACCUUCUCUGAGGAGAUUAACA | 0.0158 ± 0.0073
UAGUGACACACCUUCUCUGUGAGAUUAAGA | 0.0129 ± 0.0067
UAGUGACAGUCCUUCUCUGUGAGAUUAUCA | 0.00722 ± 0.002
UAGUGACUGUCCUUCUCUGAGAGAUUAUGA | 0.00765 ± 0.0054
UAGUCUGUCACCUUCUCUCAGACAUUAACA | 0.0408 ± 0.011
UAGUGACAGUGGAAGACUGAGUGAUUAUCA | < 0.0001
UAGUGACAGACCUUCUUUGAGAGAUUAACA | 0.0976 ± 0.011
UAGUGACAGUGCUCCUCUGAGAGAUUAACA | 0.0464 ± 0.0072
UAGUGACAGACCUUGUCAGAGAGAUUAACA | 0.0138 ± 0.0059
UAGUGACUCACCUUGUCUGACAGAUUAACA | 0.0415 ± 0.0082
UAGUGUGUCACCUUCAUCUGAGAGAUUAACA | 0.0928 ± 0.023
UAGUGUGUCACCUUCUCUGUGAGAUUAAGA | 0.0576 ± 0.012
UAGUCUCUCACCUUCUCUCAGAGAUUAACA | 0.043 ± 0.0055
UAGUGACAGUCCUACUGUGAGAGAUUAACA | 0.0112 ± 0.0017
UAGUGACACACCUUCUCUGUGAGAUUAUGA | 0.0111 ± 0.0041
UAGUGACACACCAUCUCUGAGAGAUUAUCA | 0.0696 ± 0.017
UAGUCUGUCACCUUCUCUGAGAGAUUAAGCA | 0.153 ± 0.022

Sequence | pre-steady-state target cleavage rate
UAGUGUGGCACCUUCUCUGAGAGAUUAACA | 0.147 ± 0.041
UAGUCUGUCACCUUCACUGUGAGAUUAACA | 0.0435 ± 0.0046
UAGUGUGUCACCUUCUCUAGAGAGAUUAACA | 0.0225 ± 0.0093
UAGUGACACACCUCUCUGAGAGAUUAACA | 0.0352 ± 0.0093
UAGUGUCAGACCUUCUCUGAGAGAUUAACA | 0.108 ± 0.012
UAGUGACAGUCCUCUCUCUGAGAGAUUAACA | 0.0422 ± 0.0075
UAGUCUGUCAGGAUCUCUGAGAGAUAUUGA | < 0.0001
UAGUGACACACCUUCUCUAAGAGAUUAACA | 0.118 ± 0.0097
UAGUGAGUCACCAACUCUGAGAGAUUAACA | 0.161 ± 0.01
UAGUCUGUCACCUUGUGUGAGAGAUUAACA | 0.0457 ± 0.0061
UAGUCUGUCACCUUCUCAGAGAGAUUAUGA | 0.00893 ± 0.006
UAGUGUGUCAGCUACUCUGAGAGAUUAACA | 0.118 ± 0.011
UAGUGUGUCACCUUCUCUGAGAGUUUUUGA | 0.178 ± 0.054
UAGUGACAGUGCUUCUCUGAGAAGAUUAACA | 0.00639 ± 0.0034
UAGUGAGUCAACUUCUCUGAGAGAUUAACA | 0.199 ± 0.015
UAGUGACUCAGCUUCUCUGAGACAUUAACA | 0.00915 ± 0.0024
UAGUGACAGACCAUCUCUGAGAGAUUUACA | 0.0177 ± 0.0054
UAGUGAGUCACCUUCUCUGAGAGUUAACA | 0.253 ± 0.077
UAGUGACAGACCUUCUCUGAGAGCAUUAACA | 0.105 ± 0.018
UAGUCUGUGACCUUCACUGAGAGAUUAACA | 0.116 ± 0.0078
UAGUGUGUCACACUUCUCUGAGAGAUUAACA | 0.0759 ± 0.0091
UAGUGUGUCACCUUCUCUGAGAGAUUAAAA | 0.108 ± 0.022
UAGUCUGUGACCAUCUCUGAGAGAUUAACA | 0.111 ± 0.0064
UAGUCACUCACCUUCUCUGAGAGAUUAAGA | 0.0614 ± 0.019

Sequence | pre-steady-state target cleavage rate
UAGUCUGACACCUUCUCUGACAGAUUAACA | 0.0296 ± 0.0049
UAGUCUGUCAGCUUCUCUCAGAGAUUAACA | 0.0457 ± 0.0055
UAGUGACAGUGGAACUGUGAGAGUUUAACA | < 0.0001
UAGUGUGUCUCCUUCUCUGAGAGUUUAACA | 0.0778 ± 0.018
UAGUGAGUCACCUUCUCUGAGAGUUUAUGA | 0.275 ± 0.092
UAGUGACAGUCCUACUCUGAGAGAUUAAGA | 0.00576 ± 0.0017
UAGUGAGUCACCAUCUCUGACAGAUUAACA | 0.0409 ± 0.0068
UAGUCUGUCACCUUCUGAGAGAGAUUAUGA | 0.00757 ± 0.0041
UAGUGACAGUGCUUCUCUGAGAGAUUAACCA | 0.0417 ± 0.0094
UAGUGUGUCACCUUCUCUGAGAGAUAAUCA | 0.067 ± 0.027
UAGUGACAGGCCUUCUCUGAGAGAUUAACA | 0.0781 ± 0.011
UAGUGACAGACCUUCACUGAGACAUUAACA | 0.0282 ± 0.012
UAGUGACUCACCUUCUCAGACAGAUUAACA | 0.0331 ± 0.0054
UAGUGACUCACCUUCUUGAGAGAUUAACA | 0.00973 ± 0.0043
UAGUGACUCACCUUCUCUGAGAGUAAAACA | 0.0822 ± 0.017
UAGUGACAGUGCUUCUGUGAGAGAAUAACA | 0.00758 ± 0.0036
UAGUGACAGUCCUUCUCAGAGACAUUAACA | 0.012 ± 0.0037
UAGUGACACACCUUCUCUGAGAGAUUAAA | 0.142 ± 0.047
UAGUGACACACCUUCUGUGUGAGAUUAACA | 0.0438 ± 0.011
UAGUGUGUCACGCUUCUCUGAGAGAUUAACA | 0.0959 ± 0.012
UAGUGACAGUGGAAGAGACAGAGACUUAACA | < 0.0001
UAGUGACACACUUCUCUGAGAGAUUAACA | 0.0505 ± 0.0059
UAGUGUGUCACCUUGUCUGAGAGAUUUACA | 0.0644 ± 0.023
UAGUCUGUCACCAUCUCUGAGACAUUAACA | 0.0315 ± 0.004
